Measured values as given in PubChem BioAssay AID924 (National Center for Advancing Translational Sciences (NCATS), 2007).
Out of some 130,000 compounds screened, about 1,200 (0.92%) were called active. The inconclusive results got no clear call from the source; some entries with a clear call stand among them for comparison. Calls follow the shape of the dose curve; as a rule, active = well fitted cell-killing curve with a large enough effect; inconclusive = small, poorly fitted or top-dose-only effect; inactive = no such curve, though single readings can be large or run the other way. A potency beside an inconclusive call is a rough fit, not a confirmed value.

test: qHTS Screen for Compounds that Selectively Target Cancer Cells with p53 Mutations: Cytotoxicity of p53ts Cells at the Permissive Temperature; conditions: H1299-p53A138V at 32C, ATP luminescence viability, 24 h; activity change, negative = cytotoxicity: at 46.1 µM (top of the series); also: nearly all actives have a fitted effect of over 55% in size;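 as to activity change, negative = cytotoxicity: 0% = DMSO and -100% = full killing by reference compound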
In short: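 Viability by ATPlite luminescence after 24 h compound treatment (up to 46 uM) at the permissive 32C. Cells are H1299 carrying p53 A138V. Scale runs from DMSO basal to 100 uM tamoxifen as full kill; AC50 from Hill fits.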
Potency is read from the fitted curve at half-maximal effect; tags tell the direction and shape of the fitted curve.

Row | SMILES | Potency | activity change, negative = cytotoxicity
1 | CCOC(=O)c1cccc(NC(=O)CCc2c(C)nn(-c3ccc(N4CCCCC4)nn3)c2C)c1 | inconclusive: 20 µM [cytotoxic, partial curve, poor fit] | –
2 | COc1cccc(C(=O)Nc2ccc3nc(N4CCOCC4)cc(C)c3c2)c1 | inconclusive: 31.6 µM [cytotoxic, single point] | –
3 | COc1ccc(-n2ncc3c(NC(C)C)ncnc32)cc1 | active: 12.6 µM | –
4 | Cc1c(C(=O)OCc2ccccc2)[nH]c2c1C(=O)CC(c1ccco1)C2 (stereo not drawn) | inactive | –
5 | COc1ccccc1Nc1cc(C(=O)NCCCN(C)C2CCCCC2)c2ccccc2n1 | inconclusive: 20 µM [cytotoxic, single point] | –
6 | CCOc1ccc(NC(=O)NC2CCOC(C)(C)C2)cc1 (stereo not drawn) | inconclusive: 0.251 µM [cytotoxic, full curve, poor fit] | –
7 | O=C(Nc1ccc2oc(-c3ccccc3Cl)nc2c1)c1ncn[nH]1 | inconclusive: 12.6 µM [cytotoxic, partial curve] | –
8 | CN(C)c1ccc(-c2ccccc2)nn1 | inconclusive: 12.6 µM [cytotoxic, partial curve] | –
9 | CCC(C)OC(=O)/C(C#N)=C/c1ccc(-c2ccc(Br)cc2)o1 (stereo not drawn) | inconclusive: 31.6 µM [cytotoxic, single point] | –
10 | O=S(=O)(NCCNC/C=C\c1ccc(Br)cc1)c1cccc2cnccc12 | inconclusive: 25.1 µM [cytotoxic, single point] | –
11 | CCC(Nc1ccc(-c2nc(-c3ccccn3)no2)cc1[N+](=O)[O-])c1ccccc1 (stereo not drawn) | inactive | –
12 | CCCCCCOC(=O)C(C#N)c1nc2ccccc2nc1N1CCN(CC)CC1 (stereo not drawn) | inconclusive: 31.6 µM [cytotoxic, single point] | –
13 | Clc1cccc(Nc2ncnc3c2nc2n3CCCCC2)c1 | inconclusive: 22.4 µM [cytotoxic, single point] | –
14 | Cc1nn(C(=O)c2cccs2)c(N)c1-c1ccccc1 | active: 12.6 µM | –
15 | CCCCOc1cccc(C2c3c(-c4cc(C)ccc4O)n[nH]c3C(=O)N2CCOC)c1 (stereo not drawn) | inconclusive: 31.6 µM [cytotoxic, single point] | –
16 | O=C(Nc1ccc2c(c1)OCCO2)c1c(F)cccc1F | inconclusive: 20 µM [cytotoxic, partial curve] | –
17 | CCOCC(=O)Nc1nc2ccc(C)cc2s1 | inconclusive: 12.6 µM [cytotoxic, partial curve] | –
18 | Cc1ccc(C(=O)Nc2cnc3ccccn3c2=O)cc1 | inconclusive: 12.6 µM [cytotoxic, partial curve] | –
19 | Cc1ccc(-n2ncc(C(=O)NCCN3CCC(Cc4ccccc4)CC3)c2C2CCN(C(=O)OC(C)(C)C)CC2)cc1 | inconclusive: 31.6 µM [cytotoxic, single point] | –
20 | O=C(NC1CCCCC1)c1noc2c1CCCCC2 | inconclusive: 12.6 µM [cytotoxic, single point] | –
21 | CN1C=CC(=C2C(=O)c3ccccc3C2=O)C=C1 | active: 12.6 µM | –
22 | CCOC(=O)c1c(C)[nH]c(C(=O)CSc2ccccc2)c1C | inconclusive: 12.6 µM [cytotoxic, partial curve] | –
23 | CC(=O)Nc1cccc(-c2nnc(SCC(=O)c3cc([N+](=O)[O-])ccc3Cl)o2)c1 | inconclusive: 31.6 µM [cytotoxic, single point] | –

Row | SMILES | Potency | activity change, negative = cytotoxicity
24 | COc1ccccc1NC(=O)c1cc2c(-c3ccccc3)nn(-c3ccccc3)c2s1 | inconclusive: 20 µM [cytotoxic, single point] | –
25 | CCC(C)Sc1nc2c(c(=O)[nH]c(=O)n2C)n1Cc1ccc(Cl)cc1 (stereo not drawn) | inconclusive: 31.6 µM [cytotoxic, single point] | –
26 | COc1ccc(N2CSC3=C(C#N)C(c4ccc(OC)c(OC)c4)CC(=O)N3C2)c(OC)c1 (stereo not drawn) | inconclusive: 31.6 µM [cytotoxic, single point] | –
27 | Cc1ccc(C)c(N2CCN(CCCNC(=O)c3cnn(-c4cccc(Cl)c4)c3C3CCN(C(=O)OC(C)(C)C)CC3)CC2)c1 | inconclusive: 31.6 µM [cytotoxic, single point] | –
28 | Cc1ccc2nc3ccc(N4CCCC4)nn3c(=O)c2c1 | inconclusive: 10 µM [cytotoxic, partial curve] | –
29 | Cc1cccc(CNC(=O)C2CCN(c3nn4cc(-c5ccc(F)cc5)nc4s3)CC2)c1 | inactive | –
30 | COc1ccccc1/C=C/c1nc(C#N)c(NCc2ccccc2)o1 | inactive | –
31 | COc1ccc(C2C(C(=O)Nc3ccccc3)=C(C)Nc3nc(-c4ccc(Cl)cc4)nn32)cc1 (stereo not drawn) | inconclusive: 20 µM [cytotoxic, single point] | –
32 | Cc1cccc(-n2ncc3c(NCCOCCO)ncnc32)c1 | inconclusive: 15.8 µM [cytotoxic, partial curve] | –
33 | COc1ccccc1-c1cc(C(=O)Nc2cccnc2)no1 | inconclusive: 12.6 µM [cytotoxic, partial curve] | –
34 | CCOC(=O)N1CCN(S(=O)(=O)c2cccc3nsnc23)CC1 | inconclusive: 0.398 µM [cytotoxic, full curve, poor fit] | –
35 | O=C(COc1cccc(Cl)c1)NNC(=S)Nc1ccccc1 | inconclusive: 35.5 µM [cytotoxic, single point] | –
36 | CCCS(=O)(=O)N1CCC(N2CCN(Cc3ccc(C)cc3)C(=O)C2=O)CC1 | inactive | –
37 | CN(C)c1ccc(-c2nc(-c3ccccn3)no2)cc1[N+](=O)[O-] | inactive | –
38 | CCCc1ccc(Oc2c(-c3ccc(O)c(C)c3O)n[nH]c2C)cc1 | inconclusive: 31.6 µM [cytotoxic, single point] | –
39 | CCN1c2ccccc2NC2N=C(OC)C(c3ccccc3)C21 (stereo not drawn) | inconclusive: 15.8 µM [cytotoxic, single point] | –
40 | CCOc1ccc(CCNC(=O)C2CCCN(c3nnc(C)c4c(C)n(-c5ccccc5)nc34)C2)cc1 (stereo not drawn) | inactive | –
41 | Cc1ccc(Nc2cc(C(=O)NC3CCCC3)c3ccccc3n2)cc1C | inconclusive: 0.0398 µM [cytotoxic, full curve, poor fit] | –
42 | COc1ccc(CC(=O)Nc2cccc(-c3nnc(-c4ccc(C)cc4)o3)c2)cc1OC | inconclusive: 20 µM [cytotoxic, single point] | –
43 | CCOC(=O)c1cnc(-n2nc(C)cc2C)nc1NCc1ccccc1 | inconclusive: 15.8 µM [cytotoxic, single point] | –
44 | Cc1cccc(C(=O)Nc2ccc(-c3nc4ccccc4s3)c(C)c2)c1 | inconclusive: 15.8 µM [cytotoxic, partial curve] | –
45 | COc1ccc(N2CCN(CC(O)COc3ccccc3C(C)(C)C)CC2)cc1 (stereo not drawn) | inconclusive: 15.8 µM [cytotoxic, single point] | –
46 | Cc1ccc(-c2nc(-c3nccc4ccccc34)oc2-c2ccccc2)cc1 | – | inactive: -1.3% [at 9.22 µM]

Row | SMILES | Potency | activity change, negative = cytotoxicity
47 | Cc1ccc2[nH]cc(C(c3ccccc3)c3cccs3)c2c1 (stereo not drawn) | inconclusive: 31.6 µM [cytotoxic, single point] | –
48 | O=C(Nc1ccc(N2CCOCC2)c(Cl)c1)c1ccco1 | active: 12.6 µM | –
49 | CN(C)c1ccc(N=Nc2ccccc2C(=O)OCC(=O)N(C)c2ccccc2)cc1 | active: 10 µM | –
50 | CCOc1ccc(NC(=O)c2cccc3c2C(=O)N(Cc2cccnc2)C3)cc1 | inconclusive: 20 µM [cytotoxic, partial curve, poor fit] | –
51 | COC(=O)c1ccc(O)c(Sc2cc(C(=O)OC)ccc2O)c1 | inconclusive: 12.6 µM [cytotoxic, single point] | –
52 | Cc1cccc(N(C)C(=O)C(Cc2ccccc2)NS(=O)(=O)c2cccc3nsnc23)c1 (stereo not drawn) | inactive | –
53 | Cc1ccc(-c2[nH]nc3c2C(c2cccnc2)C(C#N)=C(N)O3)cc1 (stereo not drawn) | inactive | –
54 | O=C(Nc1cnccn1)c1ccncc1 | inactive | –
55 | Fc1ccc(NCc2cn3ccccc3n2)cc1 | inconclusive: 31.6 µM [cytotoxic, single point] | –
56 | Cc1cc(OCc2nc(N)nc(N)c2-c2ccc(Cl)c(Cl)c2)ccc1[N+](=O)[O-] | inconclusive: 2 µM [cytotoxic, partial curve] | –
57 | COc1ccc(CCCc2nnc(SCC(=O)Nc3ccc(C)cc3C)o2)cc1 | inactive | –
58 | COc1ccccc1-c1noc(-c2ccco2)n1 | inconclusive: 12.6 µM [cytotoxic, partial curve] | –
59 | COc1cc(NS(C)(=O)=O)ccc1Nc1c2ccccc2nc2ccccc12 | inconclusive: 1 µM [cytotoxic, partial curve] | –
60 | Cc1occc1C(=O)N/N=C/C1=C(N2CCOCC2)C(=C\c2ccc(Cl)cc2)/CC1 | inconclusive: 0.0158 µM [cytotoxic, full curve, poor fit] | –
61 | Nn1c(-c2ccccn2)nnc1-c1ccccn1 | inconclusive: 20 µM [cytotoxic, partial curve, poor fit] | –
62 | COc1ccc(-n2nc(C(=O)Nc3cccc(C(F)(F)F)c3)c3c4ccccc4n(C)c3c2=O)cc1 | inactive | –
63 | O=C(COc1ccc2c(c1)CCC2)N1CCc2ccccc21 | active: 12.6 µM | –
64 | Cc1ccc(C(=O)Nc2c(C(=O)NCc3ccc(Cl)cc3)sc3nc(C)cc(C)c23)cc1 | inconclusive: 31.6 µM [cytotoxic, single point] | –
65 | CCC(C)NC(=O)c1cc(-c2cccc(OC)c2)on1 (stereo not drawn) | inconclusive: 12.6 µM [cytotoxic, single point] | –
66 | CCOc1ccc(C(=O)CCN2CCCCCC2)cc1 | inconclusive: 25.1 µM [cytotoxic, single point] | –
67 | Cc1ccc(S(=O)(=O)Nc2ccccc2C(=O)c2ccc(C)c(C)c2)cc1 | – | inactive: -7.97% [at 9.22 µM]
68 | COc1ccc(-n2c(=O)c3c(c4cc(OC)ccc4n3C)n(Cc3cccc(OC)c3)c2=O)cc1 | inactive | –
